In all, about 310,000 compounds went through this assay and about 14,000 (4.5%) showed an effect of 50% or more. The effect is printed as a negative number. Some of the results follow.
The compounds below were run against human ether-à-go-go-related gene (hERG) potassium channel (human, UniProt Q12809) (assay: primary screen, population patch clamp on CHO cells stably expressing hERG).
Chain of human ether-à-go-go-related gene (hERG) potassium channel (Q12809 whole entry, looked up): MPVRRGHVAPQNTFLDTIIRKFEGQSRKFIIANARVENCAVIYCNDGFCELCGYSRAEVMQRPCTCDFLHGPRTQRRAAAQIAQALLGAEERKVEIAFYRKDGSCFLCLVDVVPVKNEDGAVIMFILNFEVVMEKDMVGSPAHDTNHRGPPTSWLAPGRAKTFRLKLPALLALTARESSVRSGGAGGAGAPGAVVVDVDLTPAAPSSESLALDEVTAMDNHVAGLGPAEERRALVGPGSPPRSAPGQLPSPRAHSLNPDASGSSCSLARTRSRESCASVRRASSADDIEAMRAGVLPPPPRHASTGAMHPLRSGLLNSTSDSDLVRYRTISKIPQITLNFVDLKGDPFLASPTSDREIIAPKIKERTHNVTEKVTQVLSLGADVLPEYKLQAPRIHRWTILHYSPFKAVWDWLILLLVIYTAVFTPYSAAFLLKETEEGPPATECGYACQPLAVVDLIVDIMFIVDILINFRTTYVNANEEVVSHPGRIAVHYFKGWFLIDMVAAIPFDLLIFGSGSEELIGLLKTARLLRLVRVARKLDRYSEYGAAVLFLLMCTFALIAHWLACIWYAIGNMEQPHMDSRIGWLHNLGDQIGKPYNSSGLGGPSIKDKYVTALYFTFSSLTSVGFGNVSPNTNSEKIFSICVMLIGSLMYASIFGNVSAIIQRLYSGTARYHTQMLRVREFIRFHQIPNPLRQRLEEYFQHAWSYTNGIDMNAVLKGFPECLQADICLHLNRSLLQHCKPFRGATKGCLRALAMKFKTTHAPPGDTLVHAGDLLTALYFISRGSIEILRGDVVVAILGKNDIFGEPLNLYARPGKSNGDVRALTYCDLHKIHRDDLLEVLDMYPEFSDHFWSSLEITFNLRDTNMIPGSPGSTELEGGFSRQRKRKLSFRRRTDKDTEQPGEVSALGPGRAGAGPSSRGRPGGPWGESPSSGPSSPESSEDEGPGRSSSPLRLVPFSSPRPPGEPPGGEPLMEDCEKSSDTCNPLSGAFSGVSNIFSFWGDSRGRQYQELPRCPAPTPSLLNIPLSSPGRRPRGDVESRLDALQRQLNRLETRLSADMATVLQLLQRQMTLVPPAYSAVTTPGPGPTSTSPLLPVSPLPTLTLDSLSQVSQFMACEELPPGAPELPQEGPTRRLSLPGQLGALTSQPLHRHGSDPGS
In the case of `O=C(O)C1=C[C@@H](c2ccc(C(F)(F)F)cc2)C[C@@H](OCc2ccc(CO)cc2)O1`, the “hERG current change (%, negative = inhibition) at 10uM” value is reported as 16.7%.
In the case of `O=C(CCS(=O)(=O)c1ccccc1)Nc1ccccc1-c1nc2ccccc2s1`, the “hERG current change (%, negative = inhibition) at 10uM” value is reported as 12.1%.
In the case of `COc1cc(-c2nnc(SCC(=O)N(C)C3CCS(=O)(=O)C3)o2)cc(OC)c1OC` (stereo not drawn), the “hERG current change (%, negative = inhibition) at 10uM” value is reported as 17.5%.
`CO/N=C/CC(=O)c1cnc(-c2ccc(Cl)cc2)s1` was tested, and the “hERG current change (%, negative = inhibition) at 10uM” value was 13.9%.
`COc1ccc(C2CC(c3ccccc3)=NN2C(=O)COC(=O)c2cccnc2)cc1` (stereo not drawn) was tested, and the “hERG current change (%, negative = inhibition) at 10uM” value was 9.31%.
With `Cc1cc(NC(=O)CCc2ccc(C)o2)no1` the “hERG current change (%, negative = inhibition) at 10uM” value was 0.613%.
For `CC(C)C12CN3CC(C(C)C)(CN(C1)C3c1ccccc1)C2O` (stereo not drawn), the “hERG current change (%, negative = inhibition) at 10uM” value was -3.63%.
`CCOC(=O)c1c(C)[nH]c(C(=O)COC(=O)CNC(=O)c2ccccc2Cl)c1C` was tested, and the “hERG current change (%, negative = inhibition) at 10uM” value was 1.43%.
`COc1cc(C(=O)Oc2cccc(C(=S)N3CCOCC3)c2)cc(OC)c1OC` was tested, and the “hERG current change (%, negative = inhibition) at 10uM” value was 22.9%.
For `O=C(NS(=O)(=O)N1CCCC1)C1=C(N2CCCC2)COC1=O`, the “hERG current change (%, negative = inhibition) at 10uM” value was 12.4%.
In the case of `O=c1c2ccccc2ncn1CCOCCOc1cccc(Br)c1`, the “hERG current change (%, negative = inhibition) at 10uM” value is reported as -9.17%.
In the case of `CCCOc1ccc(CCN2CCC(=O)NC2=O)cc1C`, the “hERG current change (%, negative = inhibition) at 10uM” value is reported as -0.389%.
For `O=Cc1ccc(OCC(=O)NC(=O)NC2CCCCC2)cc1`, the “hERG current change (%, negative = inhibition) at 10uM” value was -23.5%.
`CC(C)(C)c1ccc(C(=O)O)c(C(=O)c2ccc(C(=O)O)cc2)c1` was tested, and the “hERG current change (%, negative = inhibition) at 10uM” value was -7.76%.
For `Cc1c(C(=O)N2CCCCCC2)c(S(=O)(=O)NCc2ccccc2Cl)c(C)n1C`, the “hERG current change (%, negative = inhibition) at 10uM” value was -0.552%.
For `Cc1cccc(-n2ncc3c(N4CCC(C)CC4)ncnc32)c1`, the “hERG current change (%, negative = inhibition) at 10uM” value was 12.6%.
For `CC(CN1CCOCC1)OC(=O)c1ccccc1Br.Cl` (stereo not drawn), the “hERG current change (%, negative = inhibition) at 10uM” value was 5.01%.
`Cc1cccc(/C=N/NC(=O)c2ccc(Br)cc2)c1` was tested, and the “hERG current change (%, negative = inhibition) at 10uM” value was 4.33%.
`COc1ccc(NC(=O)COC(=O)/C=C/c2cnc3ccccc3n2)cc1` was tested, and the “hERG current change (%, negative = inhibition) at 10uM” value was 6.81%.
With `O=C(NCCCN1CCOCC1)c1cc(C(=O)C2CCCCC2)c[nH]1` the “hERG current change (%, negative = inhibition) at 10uM” value was -11.8%.
With `CCOCCCNC(=O)c1c[nH]c2c(CC)cccc2c1=O` the “hERG current change (%, negative = inhibition) at 10uM” value was 31.5%.
For `O=C(COc1ccc(S(=O)(=O)NC2CCCCC2)cc1Cl)Nc1ccc2c(c1)OCO2`, the “hERG current change (%, negative = inhibition) at 10uM” value was 3.95%.
In the case of `Cc1cccc(C)c1OCc1cc(C(=O)N2CCC[C@H]2C(N)=O)no1`, the “hERG current change (%, negative = inhibition) at 10uM” value is reported as 9.25%.
For `CN1CCC(=NNC(=O)CN(c2ccc(Oc3ccccc3)cc2)S(C)(=O)=O)CC1`, the “hERG current change (%, negative = inhibition) at 10uM” value was 9.51%.
With `CC(C)N1CCN(Cc2nc3c(s2)CCCC3)CC1CCO` (stereo not drawn) the “hERG current change (%, negative = inhibition) at 10uM” value was 18.9%.
`COC(=O)CNc1nc(-c2cccnc2)nc2ccccc12` was tested, and the “hERG current change (%, negative = inhibition) at 10uM” value was 8.89%.
For `Cc1ccc(S(=O)(=O)Nc2ccc3c(c2)nc(CCN2CCCC2)n3C)cc1`, the “hERG current change (%, negative = inhibition) at 10uM” value was -42.5%.
For `CC1Cc2ccccc2N1C(=O)Cn1cnc2ccccc21` (stereo not drawn), the “hERG current change (%, negative = inhibition) at 10uM” value was 8.2%.
For `CCn1c(=O)c2sccc2n2c(CCCC(=O)NCCc3ccc(S(N)(=O)=O)cc3)nnc12`, the “hERG current change (%, negative = inhibition) at 10uM” value was -4.96%.
With `CCC(=O)Nc1cc2nn(-c3ccc(OC)cc3)nc2cc1C` the “hERG current change (%, negative = inhibition) at 10uM” value was 0.0727%.
`N#C/C(=C\c1ccc([N+](=O)[O-])cc1)c1ccccn1` was tested, and the “hERG current change (%, negative = inhibition) at 10uM” value was 17.7%.
In the case of `Cc1cc(C)n2c(SCC(=O)N(C)C3CCS(=O)(=O)C3)nnc2n1` (stereo not drawn), the “hERG current change (%, negative = inhibition) at 10uM” value is reported as 1.58%.
For `CCCc1nnc(NC(=O)c2c(O)c3cccc4c3n(c2=O)CC4)s1`, the “hERG current change (%, negative = inhibition) at 10uM” value was 19.5%.
For `O=C(OCc1nnc(-c2ccccc2)o1)C1=COCCO1`, the “hERG current change (%, negative = inhibition) at 10uM” value was 0.0738%.
`CC(C)NC(=O)c1nc2ccccc2s1` was tested, and the “hERG current change (%, negative = inhibition) at 10uM” value was 10.3%.
`COc1ccc(OCc2nn3c(Cn4cnc5ccccc54)nnc3s2)cc1` was tested, and the “hERG current change (%, negative = inhibition) at 10uM” value was -21.6%.
For `COc1ccc(OC)c(NC(=O)c2cccc(Cn3cc(Br)c([N+](=O)[O-])n3)c2)c1`, the “hERG current change (%, negative = inhibition) at 10uM” value was -13.9%.
With `COc1ccc(OC)c(NC(=O)CSc2nnc3ccc(-c4ccccn4)nn23)c1` the “hERG current change (%, negative = inhibition) at 10uM” value was -12.9%.
For `Cc1ccccc1NC(=O)c1cccc(C(F)(F)F)c1`, the “hERG current change (%, negative = inhibition) at 10uM” value was -11.7%.
With `CCc1c(C)sc(NC(=S)NC(C)C2CCCO2)c1C(=O)OC` (stereo not drawn) the “hERG current change (%, negative = inhibition) at 10uM” value was 9.87%.
In the case of `O=C(/C=C/c1ccc(Br)cc1)c1ccc(NC(=O)c2ccco2)cc1`, the “hERG current change (%, negative = inhibition) at 10uM” value is reported as 7.51%.
In the case of `NC(=O)N/N=C/C=C/c1ccccc1`, the “hERG current change (%, negative = inhibition) at 10uM” value is reported as 21.4%.
For `Cc1ccc2nc3c(cc2c1)c(NC(=O)C(C)(C)C)nn3CC(C)C`, the “hERG current change (%, negative = inhibition) at 10uM” value was 5.96%.
`CCOc1ccc(C2C(C#N)=C(N)Oc3nc[nH]c(=O)c32)cc1OC` (stereo not drawn) was tested, and the “hERG current change (%, negative = inhibition) at 10uM” value was 11.4%.
`COc1ccc(-c2nnc3ccc(SCC(=O)Nc4nc5ccc(C)cc5s4)nn23)cc1OC` was tested, and the “hERG current change (%, negative = inhibition) at 10uM” value was -0.00742%.
With `COc1ccc(S(=O)(=O)N(CC(=O)NCC2CCCO2)c2ccc(Cl)cc2)cc1` (stereo not drawn) the “hERG current change (%, negative = inhibition) at 10uM” value was -36.1%.
For `COC(=O)Cc1ccc(NC(=S)NCCCN2CCOCC2)cc1`, the “hERG current change (%, negative = inhibition) at 10uM” value was 9.54%.
In the case of `COc1cc(NC(=O)CCc2nnc3ccc(N4CCCC4)nn23)cc(OC)c1OC`, the “hERG current change (%, negative = inhibition) at 10uM” value is reported as 6.49%.
With `Cc1ccc(C(=O)N/C(=C\c2cccs2)C(=O)NCCCN2CCOCC2)cc1` the “hERG current change (%, negative = inhibition) at 10uM” value was -61.4%.
With `COc1ccc(Cn2c(=S)[nH]c3cc(C(=O)N4CCN(c5ccccc5)CC4)ccc3c2=O)cc1` the “hERG current change (%, negative = inhibition) at 10uM” value was 33.8%.
For `Cc1ccnc(NC(=O)/C=C/c2ccccc2[N+](=O)[O-])c1`, the “hERG current change (%, negative = inhibition) at 10uM” value was 21.3%.
In the case of `Cc1ccc(C)c(S(=O)(=O)NCc2ccc3c(c2)OCO3)c1`, the “hERG current change (%, negative = inhibition) at 10uM” value is reported as 2.42%.
In the case of `Oc1ccc(-c2nccc(-c3ccccn3)n2)cc1`, the “hERG current change (%, negative = inhibition) at 10uM” value is reported as 12.2%.
For `S=c1[nH]nc(C2CC2)n1Cc1ccccc1`, the “hERG current change (%, negative = inhibition) at 10uM” value was 67.3%.
For `Cn1c(N)c(C(=O)COC(=O)C2CC(O)CN2S(=O)(=O)c2ccc(Cl)cc2)c(=O)n(C)c1=O` (stereo not drawn), the “hERG current change (%, negative = inhibition) at 10uM” value was 12.8%.
`COc1ccccc1N1CCN(CC(=O)Nc2ccc(CN3CCCCC3)cc2)CC1.Cl` was tested, and the “hERG current change (%, negative = inhibition) at 10uM” value was -11.5%.
For `CC(=O)Nc1ccc(NC(=O)COc2ccc(-c3ccc(C#N)cc3)cc2)cc1`, the “hERG current change (%, negative = inhibition) at 10uM” value was 6.87%.
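Also: peak tail current of the secondary pulse compared with the same well before compound.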
